Data taken from PubChem BioAssay (NCI).
Some structures have more than one record in an assay (separate samples or runs), and their calls can disagree.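 In brief: 96-well plates, 48 h treatment, single concentration, percent growth endpoint.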 The source holds more than one record for some entries. The list is limited to them. The source may hold further records. For part of these data: These are repeated runs of one drug, at its own concentration, as given; each value is one run. Additions like (4×) give the number of equal values in this list. Entries with a single value are a further part of the results. Active and inactive are the calls of the source. Rule for the calls: active = growth percent below 10; inactive = the rest.

Key:
IGROV1 ovarian = assay: NCI-60 one-dose screen, 48 h (100 = growth as untreated, 0 = no growth, -100 = all killed); conditions: 25 µM; runs of 2000
OVCAR-3 ovarian = assay: as above; conditions: 0.25 µM

## COc1cccc2c1C(=O)c1c(O)c3c(c(O)c1C2=O)C[C@@](O)(C(=O)CO)C[C@@H]3OC1CC(N)C(O)C(C)O1 (stereo not given in full)
IGROV1 ovarian
  growth: active: -100% (2×), -78.7%
OVCAR-3 ovarian; runs of 2006
  growth: inactive: 65.9%
OVCAR-3 ovarian; runs of 2007
  growth: inactive: 63.7, 59.9, 73.6, 64.2, 64, 62.1, 73, 84.4, 83.1, 70.8, 71.4, 76.4, 78.1, 49, 47.6, 61, 50.5, 58.7, 68.8, 65.1, 76, 80, 86.2, 67.5, 51.4, 64.6, 72.4, 76.1, 74, 90.3, 91.6, 47.5, 65.2, 50.3, 58.6, 55.3, 53.5, 67.4% and active: 6.28%
OVCAR-3 ovarian; runs of 2008
  growth: inactive: 66.5 (2×), 58.9, 59.4, 62.7, 60.5, 73.2, 72.7, 66.2, 77.4, 79.5, 74.5, 69.7, 78.9, 34.1, 63.3, 54.6, 50, 33.2, 54.2, 46.7, 51, 60, 46.5, 44.8, 101, 66.3, 26.8, 38.9, 54.3, 19, 34.6, 55.7, 45.3, 31.8, 32.1, 35.8, 36.5, 64.7, 63.1, 74, 48.6, 63.8, 55.5, 76.2, 40.4, 41.6, 46.2, 35, 69.1, 50.5, 54, 58.7% and active: 8.79%
OVCAR-3 ovarian; runs of 2009
  growth: inactive: 50.1, 51.8, 52.2, 52.7 (2×), 56, 49.5, 63.6 (2×), 61.8 (2×), 63.1, 61.3, 68.5 (3×), 61.7, 59.8, 60.5, 65.1 (2×), 76.9 (2×), 61.4, 73.7, 65.8, 71.1 (2×), 73, 56.4, 33.3, 48.2, 57.6, 53.5, 66.6, 64.3, 57.5, 78.1, 60.4, 46.2, 46.9, 39.4, 77.5, 41.7 (2×), 61.9, 50.7, 42, 58.9, 79.4, 79.8, 69.6, 40.7, 55.4, 81.1, 71.4, 80.4, 55.8, 72.1, 77.6, 56.8, 99.3, 81.4, 74.1, 64.7, 92.2, 74.3, 83, 78.4, 80.2%
OVCAR-3 ovarian; runs of 2010
  growth: inactive: 85 (2×), 90.1, 79.4, 74.3, 75.8 (2×), 92.3, 85.2, 84.1, 88.4, 78.9, 77.3 (2×), 70.5, 66.6 (2×), 78.2, 74.7, 65.5, 65.4, 69.6, 48, 67.7, 53.9, 72.4, 64.5, 62.4, 60.3, 61.1, 78.3, 77.8, 64.3, 69.1, 46.8, 74, 59.5, 71.3, 72.6, 73.2, 59.1, 63.3, 68.4, 59.4, 86, 68.1, 57.9, 74.5, 88, 82.8, 62.7, 71.2, 80.5, 77.5%
OVCAR-3 ovarian; runs of 2011
  growth: inactive: 70.6, 79.1, 78, 74.9 (2×), 84.4, 77.5, 76.2, 73.1 (2×), 83.8, 91.3, 75.1, 80.5 (2×), 88.2 (2×), 82.8, 86.1, 88.7, 88.5, 84.6, 88.9, 93.4, 87.9, 95.1, 88.4, 81.1, 79.7, 86.8, 79.8, 72.9, 80.3, 71.7, 52.1, 84, 62.4, 77.4, 73.7, 78.4, 79, 79.2, 64.6, 58.3, 68.7 (3×), 66.5, 73.2, 52.5, 80.8, 79.4, 72.3, 92.1, 79.3, 77.3%
OVCAR-3 ovarian; runs of 2012
  growth: inactive: 86.5, 76.5, 75.8, 75.1, 74.5 (3×), 83.2, 87.4, 84.4, 76.9, 74.3 (2×), 52.5, 46.6, 78.1, 80.4, 91.3, 87, 83.8, 88.4, 90.7, 102 (2×), 90.9 (2×), 90.4, 97.2, 96.5, 95.6, 95.7, 83.1, 106, 88.3, 92.2, 84.9, 83.6, 88.7, 60.5, 86.7, 81.4, 69, 66.1, 80.8, 73.1, 87.9, 89.3, 85, 86.8, 91.6, 100, 91.1, 89.2, 85.2, 84.8, 96.3, 85.7, 97.6, 84.6, 75, 61.7, 66.3, 60.2, 79.2, 67.8, 76.1, 71.4, 73.3, 64.8%
OVCAR-3 ovarian; runs of 2013
  growth: inactive: 59.1 (2×), 63.2, 70.1, 67.5, 69.6 (2×), 76.1, 68, 79.2 (3×), 70.6 (2×), 64.7 (2×), 75.9 (3×), 77.8 (2×), 78.5, 73.4, 66.3 (2×), 81.1, 72 (2×), 62.9, 72.9, 60.1, 77.2 (2×), 90.1, 76.3, 82, 87.7, 77.4, 87.6, 72.4, 82.5, 77.9, 88.4, 79.8, 76.8, 88.2, 79.5, 69.1, 84, 72.3, 69.4, 77, 68.7, 65.9, 52.1, 62.6, 59.7, 66.5, 60.2, 64.2, 53.9, 64.6 (2×), 70.3, 71.9, 56.7, 60.7, 65.5%
OVCAR-3 ovarian; runs of 2014
  growth: inactive: 70.1, 69.9, 64.2, 58.7, 55.9, 56.8 (2×), 55.3, 61 (2×), 50.2, 66.5, 61.8, 61.2 (2×), 73.7, 59.9, 70.6 (2×), 58.5, 72.4, 68.5, 68.8 (2×), 64.8, 63.7, 69.1, 62.5 (2×), 61.1, 62.4 (2×), 62.8, 76.9 (2×), 73.9 (2×), 76.2, 73.3, 74.1, 70, 72.6 (2×), 73.1, 71.3, 69.4, 76, 70.9, 59.8 (2×), 64.7, 65.5, 65.4, 66.7, 63.8, 63.6, 65.1, 58.1, 60.5, 57.2, 65.2 (3×), 66.8 (2×), 71.9, 63, 79.3, 74.3, 68.1, 66.1, 69.6%
OVCAR-3 ovarian; runs of 2015
  growth: inactive: 74.8, 62.4 (2×), 58.2, 65.1, 55.7, 65.5, 72.4, 71.8 (2×), 68.6, 65.9 (2×), 64.4, 72.1, 71.3, 76.2, 64, 52.8, 52, 59.4, 60.1 (2×), 56.3 (2×), 59, 71.9, 79.4, 68.7, 69.4 (2×), 55.2 (2×), 57, 57.9 (3×), 49.7, 58.6 (2×), 56.8 (2×), 55.3, 55.9, 55.6, 55.5, 87.9, 81.1, 61.9, 63.8, 53.4, 56.7, 68, 66.1, 64.8, 62.1, 68.5, 56, 44.5, 63.7, 76.5, 60.4, 65.6, 56.1, 55.4, 54.7, 68.4 (3×), 69.9, 64.7, 69.1, 66.7, 71.4, 63.2, 66.5, 57.4, 58.9, 64.6, 59.6, 60.2, 61.7, 56.9, 70.4%
OVCAR-3 ovarian; runs of 2016
  growth: inactive: 65.5 (3×), 56.9 (2×), 62.9, 59, 72.9 (2×), 68.7 (3×), 63.9 (2×), 66.5, 63, 66.2 (2×), 64, 53 (2×), 53.4, 57.8, 51.6, 46.6, 61.4, 52.2, 55.2, 55.4, 58, 61.7, 57.1, 56.5, 57.6, 59.7, 59.2, 56.8, 60.3, 57.2, 63.4, 55.7, 65.3, 61.2 (2×), 69.7, 72.1 (2×), 70 (2×), 68 (2×), 73.7 (3×), 65.8, 65.2, 69.9, 66.6, 67.5 (2×), 73.9, 82.2, 71.2, 70.3, 76.5, 76.1 (2×), 78.6 (2×), 73.3, 80.4, 76.8 (2×), 78.1, 78.2, 75.7, 76, 69, 67.2, 67.9, 70.5%
OVCAR-3 ovarian; runs of 2017
  growth: inactive: 73.8, 68, 66.5, 64, 62.2 (4×), 60.5, 64.9 (2×), 69.5 (2×), 59.7 (3×), 57.4, 64.3, 62.8, 61.1 (2×), 55.4, 52, 53.1, 62.7 (3×), 65.9 (3×), 57.2, 54.5, 63.1 (3×), 57 (2×), 57.7, 63.7, 65.1, 68.6, 67.5, 64.8, 58.6, 60.8, 43.8, 65.2, 64.4, 61.2, 61.4, 63.2, 61.9, 70, 71.4, 66.8, 62.3, 60.3, 60.4, 72.7, 75, 67.3 (2×), 76.4, 75.8, 70.8, 71.2, 74, 72, 57.9, 68.5, 72.6, 63.6, 65, 68.8, 67.4, 65.3%
OVCAR-3 ovarian; runs of 2018
  growth: inactive: 72.4, 69.5 (2×), 60.1, 60.7, 69.1, 67.4, 65.3, 60.6, 57.6, 65.5, 74 (2×), 67.9, 65.8, 78.5, 74.2, 77.2, 73.3, 71.2 (2×), 69.9, 70.9, 65.9, 72.9, 74.8, 67.7, 61.9, 62.9, 63.9, 63.7, 73.4, 73.7, 71.7, 55.6, 60, 67.8 (2×), 64.7, 62.6, 68.7, 64, 59.7, 70, 75.5, 68.1, 65.4, 63, 66.3 (2×), 70.1, 70.4, 66.5, 69, 47.8, 53.7%
OVCAR-3 ovarian; runs of 2019
  growth: inactive: 62.5, 51.2, 56.7, 49.5, 51, 53.6, 56.5, 54.5, 51.6 (2×), 58.1, 54.3 (2×), 60.3, 69.5, 62.1, 73.7, 60.7, 66.5, 62.8, 61, 64, 59.5, 59.6, 74.7, 45.1, 64.5, 56.1, 52.1, 66.1, 67.5, 58.5, 55.3, 52.3, 65.5, 65, 58.3, 66.6, 57.8, 75.8, 66.8, 69.7, 65.1, 61.9, 56.4%
